The values that follow come from PMC4336329 (PLoS ONE, 2015).

About 14,000 (4.5%) of roughly 310,000 compounds showed an effect of 50% or more. The effect is printed as a negative number. The list shows a part of the results.
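Note: peak tail current of the secondary pulse compared with the same well before compound.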

In this test the target is human ether-à-go-go-related gene (hERG) potassium channel (human, UniProt Q12809). Put plainly: primary screen, population patch clamp on CHO cells stably expressing hERG.
Sequence of human ether-à-go-go-related gene (hERG) potassium channel (Q12809 whole entry, looked up): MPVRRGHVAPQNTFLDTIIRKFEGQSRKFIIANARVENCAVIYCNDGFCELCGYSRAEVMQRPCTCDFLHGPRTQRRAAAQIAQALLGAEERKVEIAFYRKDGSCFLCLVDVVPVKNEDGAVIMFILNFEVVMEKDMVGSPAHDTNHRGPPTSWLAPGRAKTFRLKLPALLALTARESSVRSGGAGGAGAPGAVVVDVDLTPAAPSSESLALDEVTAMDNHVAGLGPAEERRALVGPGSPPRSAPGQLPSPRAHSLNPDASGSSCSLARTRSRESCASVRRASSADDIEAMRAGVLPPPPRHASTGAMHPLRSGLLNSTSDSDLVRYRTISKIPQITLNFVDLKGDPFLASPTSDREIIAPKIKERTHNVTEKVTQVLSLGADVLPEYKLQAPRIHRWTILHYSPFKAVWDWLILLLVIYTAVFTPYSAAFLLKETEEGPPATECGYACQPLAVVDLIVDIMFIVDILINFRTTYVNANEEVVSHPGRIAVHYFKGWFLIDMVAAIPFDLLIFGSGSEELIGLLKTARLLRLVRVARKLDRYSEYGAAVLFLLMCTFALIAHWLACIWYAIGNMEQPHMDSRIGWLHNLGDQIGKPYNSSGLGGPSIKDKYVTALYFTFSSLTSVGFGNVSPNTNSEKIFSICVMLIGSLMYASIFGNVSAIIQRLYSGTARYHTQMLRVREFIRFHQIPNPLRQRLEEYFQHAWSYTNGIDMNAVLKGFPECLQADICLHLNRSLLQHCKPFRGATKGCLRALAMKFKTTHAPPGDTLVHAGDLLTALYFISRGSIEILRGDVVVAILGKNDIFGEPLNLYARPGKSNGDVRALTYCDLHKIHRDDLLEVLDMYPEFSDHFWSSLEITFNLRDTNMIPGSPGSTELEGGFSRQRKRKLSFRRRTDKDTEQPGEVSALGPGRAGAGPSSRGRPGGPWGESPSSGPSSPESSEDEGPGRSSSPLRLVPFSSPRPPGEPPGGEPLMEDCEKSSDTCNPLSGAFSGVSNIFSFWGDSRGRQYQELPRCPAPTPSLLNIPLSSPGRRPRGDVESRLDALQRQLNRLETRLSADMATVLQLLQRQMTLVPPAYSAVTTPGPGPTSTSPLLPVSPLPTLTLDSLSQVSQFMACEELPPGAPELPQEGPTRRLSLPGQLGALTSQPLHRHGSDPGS
Take `Cc1ccc(NC(=O)c2cccc(S(=O)(=O)NCc3ccccc3)c2)nc1`: the “hERG current change (%, negative = inhibition) at 10uM” value was -50.7%. For `Cc1c(NS(=O)(=O)c2ccc3[nH]c(=O)[nH]c3c2)c(=O)n(-c2ccccc2)n1C`, the “hERG current change (%, negative = inhibition) at 10uM” value was 0.00908%. With `CN(C)c1ccc(CNC(=O)CN2C(=O)COc3ccc(S(=O)(=O)N4CCCC4)cc32)cc1`, the “hERG current change (%, negative = inhibition) at 10uM” value is 9.58%. Take `CCOC(=O)c1[nH]c2ccc(Cl)cc2c1NC(=O)/C=C/c1ccc2c(c1)OCO2`: the “hERG current change (%, negative = inhibition) at 10uM” value is listed as -1.13%.

`CCn1c2ccccc2c2cc(/C=N/n3c(C)nnc3C)ccc21`: the “hERG current change (%, negative = inhibition) at 10uM” value is recorded as -25%. As to `Cc1cccc(C(=O)N2CCC(=O)N(C(COCc3cccc(C(F)(F)F)c3)Cc3ccccc3)CC2)c1` (centres unmarked), the “hERG current change (%, negative = inhibition) at 10uM” value was -18.2%.

As for `CCN1CCc2c(C#N)c(NCc3ccccc3)nc(NCCO)c2C1`, the “hERG current change (%, negative = inhibition) at 10uM” value is -51.6%. As for `O=C(NCC(c1cccs1)N1CCOCC1)c1cn(-c2ccccc2)nc1-c1ccccc1` (centres unmarked), the “hERG current change (%, negative = inhibition) at 10uM” value is -25%.

On to `CCOc1ccc(NC(=O)Cn2nnc(C(=O)NCCc3ccc(OC)c(OC)c3)c2N)cc1`, for which the “hERG current change (%, negative = inhibition) at 10uM” value is reported as -4.9%. Consider `CC(=O)/C(N=Nc1cc(C)ccc1O)=C(\C)O`, for which the “hERG current change (%, negative = inhibition) at 10uM” value worked out at 11.7%.

Regarding `CC(C)c1ccccc1NC(=O)COC(=O)Cc1cccc(C(F)(F)F)c1`, the “hERG current change (%, negative = inhibition) at 10uM” value was 17.2%. In the case of `CCN(C=NC1=NN(c2cccc(C(F)(F)F)c2)CC1)CC` it was -35.8%; in that of `Cc1cccc(NC(=S)N2CCC(NC(=O)c3ccco3)CC2)c1`, -18.2%. Next, `O=[N+]([O-])c1ccccc1OCCCN1CCOCC1`: 7.89%; `O=C(CCC(=O)N1CCN(c2cccc(Cl)c2)CC1)c1cccs1`: -56.8%; `O=c1[nH]c2cccnc2n1Cc1ccco1`: -0.176%. In the case of `O=C(OCc1nc2ccccc2s1)c1ccc(Br)o1` it was 12%. Turning to `CC1CCN(c2ccc(C(=O)O)cc2)CC1`, the “hERG current change (%, negative = inhibition) at 10uM” value was 2.86%. In the case of `Cc1ccc(-n2ncc(C(=O)NCC3CCN(C4CCCC4)C3)c2C2CCN(C(=O)OC(C)(C)C)CC2)cc1` (centres unmarked) it was -20.4%. For the compound `CC1CC(C)CN(S(=O)(=O)CCNC(=O)c2ccc3c(c2)OCO3)C1` (centres unmarked), the “hERG current change (%, negative = inhibition) at 10uM” value is given as 9.64%. As to `COC(=O)c1ccccc1NC(=O)c1ccccc1OC`, the “hERG current change (%, negative = inhibition) at 10uM” value is -23.1%.

Take `CCCCCCn1c(CN2CCC(C)CC2)nc2c1c(=O)n(C)c(=O)n2C`: the “hERG current change (%, negative = inhibition) at 10uM” value is on record as -8.75%. For `CCN(CC(=O)Nc1c(F)cccc1F)C(=O)CCc1c[nH]c2ccccc12`, the “hERG current change (%, negative = inhibition) at 10uM” value came out at 0.268%. As for `CCOc1ccc(S(=O)(=O)Nc2ccc(S(=O)(=O)N3CCCCC3)cc2)cc1`, the “hERG current change (%, negative = inhibition) at 10uM” value is reported as -18.6%. On to `CCOC(=O)c1cnc(-c2ccccc2)nc1Oc1ccc(Cl)cc1`, for which the “hERG current change (%, negative = inhibition) at 10uM” value is 2.31%. Turning to `Cc1ccc[n+](CC(=O)Nc2cc(C(F)(F)F)ccc2Cl)c1.[Cl-]`, the “hERG current change (%, negative = inhibition) at 10uM” value is -1.85%. Consider `COc1ccccc1-c1sc2cc3c(cc2c1C#CCO)OCO3`, for which the “hERG current change (%, negative = inhibition) at 10uM” value came to 12%. In the case of `Cc1ccccc1OCC(=O)NNC(=O)c1ccc(-c2ccccc2)cc1` it was -8.56%. Turning to `CCCC(C)NC(=O)COC(=O)c1ccccc1SCC(=O)NC(C)CCC` (centres unmarked), the “hERG current change (%, negative = inhibition) at 10uM” value was -6.47%. In the case of `O=C(CCC(=O)Nc1nnc(C2CCCCC2)s1)Nc1ccc(F)cc1` it was -11.3%. In the case of `O=C(Nc1ccc(Br)cc1)NC1CCCCCCC1` it was 2.29%; in that of `Cc1ccc(NC(=O)CCC(=O)N/N=C/c2ccccc2O)cc1`, 16.9%. In the case of `COc1ccc(Cc2c(O)nc(SC)n(C(C)=O)c2=O)cc1`, the “hERG current change (%, negative = inhibition) at 10uM” value came to 15.6%.

Turning to `CC1(C)CC(CCN)(Cc2ccccc2Cl)CCO1` (centres unmarked), the “hERG current change (%, negative = inhibition) at 10uM” value is given as -1.1%. `O=C(Nc1cccc(NC(=O)c2cccc([N+](=O)[O-])c2)n1)c1cccc([N+](=O)[O-])c1`: the “hERG current change (%, negative = inhibition) at 10uM” value was -14%. As for `CCN(CC(=O)Nc1ccc(NC(C)=O)cc1)C(=O)C1CCCN(C(=O)c2ccc(Cl)cc2)C1` (centres unmarked), the “hERG current change (%, negative = inhibition) at 10uM” value is on record as -3.75%. In the case of `CCCCCC(=O)N1CC2(CC)CN(C(=O)CCCCC)CC(CC)(C1)C2=O` it was -21.6%. In the case of `CC(=O)c1ccccc1NS(=O)(=O)c1ccc2c(c1)CC(=O)N2` it was 2.66%; in that of `CC(C(=O)Nc1ccc(C#N)cc1)N1CCN(C(=O)C2CC2)CC1` (centres unmarked), -61.2%; in that of `C=CCN(C(=O)c1csnn1)C(C(=O)NCc1ccccc1)c1ccccc1F` (centres unmarked), 0.909%. In the case of `O=S(=O)(c1ccc2oc(=S)[nH]c2c1)N1CCCCC1` it was 28.3%; in that of `Clc1cccc(Cc2ccc(Cl)nn2)c1`, -3.46%. Take `CC(C)(C)C(=O)Nc1nc2c(c(=O)[nH]1)CCCC2`: the “hERG current change (%, negative = inhibition) at 10uM” value came out at 7.35%. With `O=S(=O)(Nc1cc(Cl)ccc1-n1cncn1)c1cc(Br)ccc1Br`, the “hERG current change (%, negative = inhibition) at 10uM” value was determined as 3.07%.

For the compound `CCOc1ccc(C(=O)Nc2ccc3c(c2)OCO3)cc1OCC`, the “hERG current change (%, negative = inhibition) at 10uM” value is 5.35%. In the case of `COc1ccccc1Oc1nc2c(c(=O)n(Cc3ccccc3F)c(=O)n2C)n1C` it was -30%; in that of `COc1cc(C#N)c(NC(=O)CN2CCN(CCO)CC2)cc1OC`, 1.4%; in that of `CCc1ccc2c(c1)C(c1ccc([N+](=O)[O-])cc1)=NNC(c1ccc(F)cc1)=N2`, -7.54%. Next, `Cc1cc(C)nc(/N=C(\N)C2=C(O)CC(C)(C)CC2=O)n1`: 1.08%. Next, `Cc1ccc(S(=O)(=O)NC(=O)NC(C)c2ccc(F)cc2)cc1` (centres unmarked): 20.6%.

For the compound `CCC/C(=N\NC(=O)c1csc(C)c1C)c1cccs1`, the “hERG current change (%, negative = inhibition) at 10uM” value is -5.57%. In the case of `O=P(Cc1cc(Br)cc(Br)c1OCCO)(c1ccccc1)c1ccccc1` it was -0.447%; in that of `COc1cccc(CNC(=O)C2Cc3ccccc3CN2C(C)=O)c1` (centres unmarked), 2.81%. In the case of `O=c1c2c(nc3c(-c4ccccc4)c[nH]n13)CCCC2`, the “hERG current change (%, negative = inhibition) at 10uM” value is -20%.

For `COc1cc(OC)cc(C(=O)NCC(=O)OCC(=O)Nc2ncc(Cl)cc2Cl)c1`, the “hERG current change (%, negative = inhibition) at 10uM” value is recorded as -3.71%. For `Clc1ccc(C2=C3CCCCn4c(-c5ccccc5)c[n+](c43)C2)cc1.[Br-]`, the “hERG current change (%, negative = inhibition) at 10uM” value is reported as -82.1%.
